Measured values from PubChem BioAssay AID1030 (National Center for Advancing Translational Sciences (NCATS), 2008).
Among all 220,000 compounds or so, about 16,000 (7.3%) were called active. The shares of active, inactive and inconclusive entries below differ from those in the screen. Calls follow the shape of the dose curve; as a rule, active = well fitted inhibition curve with a large enough effect (not every such curve was filed as active); inconclusive = small, poorly fitted or top-dose-only effect, or another doubt; inactive = no such curve, though single readings can be large or run the other way. No potency is given beside an inconclusive call; the fits are too rough.

These compounds were tested against Aldehyde dehydrogenase 1A1 (Homo sapiens) (UniProt P00352) (assay: qHTS Assay for Inhibitors of Aldehyde Dehydrogenase 1 (ALDH1A1)). Conditions: Purified ALDH1A1, NADH fluorescence, propionaldehyde substrate; series mostly up to 75.3 µM.
Chain of UniProt P00352 (P00352 whole entry, looked up): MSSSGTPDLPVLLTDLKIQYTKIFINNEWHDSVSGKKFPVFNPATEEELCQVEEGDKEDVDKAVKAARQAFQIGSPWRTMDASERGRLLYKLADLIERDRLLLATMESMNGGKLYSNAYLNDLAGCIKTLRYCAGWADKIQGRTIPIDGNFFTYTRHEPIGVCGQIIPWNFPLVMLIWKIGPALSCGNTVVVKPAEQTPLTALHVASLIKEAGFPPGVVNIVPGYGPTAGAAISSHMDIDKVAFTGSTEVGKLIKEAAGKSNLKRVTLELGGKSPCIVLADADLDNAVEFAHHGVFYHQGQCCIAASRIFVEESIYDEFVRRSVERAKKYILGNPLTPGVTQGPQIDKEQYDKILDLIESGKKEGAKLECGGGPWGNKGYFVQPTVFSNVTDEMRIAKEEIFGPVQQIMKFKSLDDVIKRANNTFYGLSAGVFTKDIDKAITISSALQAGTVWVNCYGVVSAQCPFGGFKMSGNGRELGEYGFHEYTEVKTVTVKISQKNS

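For activity, negative = inhibition in this document: plate controls were no enzyme wells and a reference inhibitor.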
Potency is read from the fitted curve at half-maximal effect; tags tell the direction and shape of the fitted curve.

| Structure (SMILES) | Potency | activity, negative = inhibition |
| --- | --- | --- |
| COC(=O)c1ccc(OCC(=O)c2ccc(C)c(C)c2)cc1 | inactive |  |
| Cc1ccc(S(=O)(=O)N2CCC(C(=O)N/N=C/c3ccccc3[N+](=O)[O-])CC2)cc1 | inconclusive [inhibitor, partial curve] |  |
| Cc1ccc(OCCOc2ccc(Br)cc2)c([N+](=O)[O-])n1 | inconclusive [inhibitor, single point] |  |
| C/C(N[C@@H]1CSCC1O)=C1/C(=O)CC2[C@@H]1C2(C)C (stereo partly drawn) | active: 8.91 µM |  |
| COCCn1c(C)cc(C(=O)COc2ccc(C)nc2[N+](=O)[O-])c1C | active: 10 µM |  |
| CCOC(=O)CSc1nnc(C)n1N | inactive |  |
| CCCCSc1nnc(CCCCCNC(=O)OC(C)(C)C)o1 | inactive |  |
| CCOC(=O)c1cc(C#N)c(SCC(=O)O)[nH]c1=O | inconclusive [inhibitor, partial curve] |  |
| O=C1S/C(=C/c2ccccc2F)C(=O)N1CCN=C1NS(=O)(=O)c2ccccc21 | inconclusive [inhibitor, single point] |  |
| COc1c(CC(=O)c2cc3c(cc2O)OC(C)(C)C(O)C3)ccc2c1C=CC(C)(C)O2 (stereo not drawn) | inconclusive [inhibitor, single point] |  |
| CSc1nc(C)c(CCOCc2ccccc2)c(=O)[nH]1 | inconclusive [inhibitor, single point] |  |
| O=C(Nc1ccon1)c1ccc(Cl)s1 | inactive |  |
| O=C(Cn1c(=O)oc2cc(S(=O)(=O)N3CCCC3)ccc21)N1CCc2ccccc2C1 | active: 11.2 µM |  |
| COc1ccc(OC)c(NC=C2C(=O)OC3(CCCCC3)OC2=O)c1 | active: 0.0891 µM |  |
| COC(=O)c1ccc(Cl)c(S(=O)(=O)N2CCCC2)c1 | inconclusive [inhibitor, single point] |  |
| CC1CN(C(=O)COC(=O)c2ccc(NC(=O)CC#N)cc2)CC(C)O1 (stereo not drawn) | active: 6.31 µM |  |
| O=C(CSCc1ccccc1)N1CCN(c2cccc(C(F)(F)F)c2)CC1 | inconclusive [inhibitor, single point] |  |
| Cc1ccc(/C=C/C(=O)Nc2ccc(N(C)C)cc2)o1 | inactive |  |
| COc1ccc(CNC(=O)c2ccc(NS(=O)(=O)c3c(C)noc3C)cc2)cc1 | inactive |  |
| S=C(Nc1ccc(Cl)c(Cl)c1)NN1CCOCC1 | inactive |  |
| COc1ccc(NC(=O)C/C(C)=N/NC(=O)c2cnccn2)cc1 | inactive |  |
| CC#CCN1c2ccccc2[C@]23C[C@@H](C(=O)OC)N(S(=O)(=O)c4ccc(C)cc4)C2=NC(C(=O)OC)=C(C(=O)OC)[C@H]13 |  | inactive: 3.83% [at 13.5 µM] |
| CCOc1ccc(/C(O)=C2\C(=O)C(=O)N(c3cc(C)on3)C2c2ccccc2OC)cc1 (stereo not drawn) | active: 22.4 µM |  |
| CCc1ccccc1NC(=O)CSc1nc2n[nH]c(C)c2c(=N)n1-c1cccc(OC)c1 | inconclusive [inhibitor, partial curve] |  |
| O=C(O)COc1cnc2ccccc2n1 | inactive |  |

| Structure (SMILES) | Potency | activity, negative = inhibition |
| --- | --- | --- |
| CCCS(=O)(=O)c1c(S(=O)(=O)CCC)c2ccc(C(N)=O)cn2c1C(=O)c1ccc(OC)cc1 | inconclusive [inhibitor, single point] |  |
| CCC(C)(C)NC(=O)C1CCN(c2nc(C)cc(C)n2)CC1 | inconclusive [inhibitor, single point] |  |
| CCC1=NN2C(=N)/C(=C\c3ccc(SCc4ccco4)o3)C(=O)N=C2S1 | inactive |  |
| Cc1ccc(-c2csc3ncnc(SCC(N)=O)c23)cc1 | inconclusive [inhibitor, single point] |  |
| CCOC(=O)N1CCN(c2c(Nc3ccc4c(c3)OCCO4)c(=O)c2=O)CC1 | inconclusive [inhibitor, partial curve] |  |
| O=C(O)C1CCC(Cn2c(SCc3cc(=O)n4ccccc4n3)nc3ccsc3c2=O)CC1 (stereo not drawn) | inconclusive [inhibitor, single point] |  |
| CCn1nc(C)c(CNC(=O)CCc2nnc(Cc3c[nH]c4ccccc34)o2)c1C | inactive |  |
| O=C(CO)N/N=C/c1cccc(Cl)c1Cl | inactive |  |
| Cc1ccc(C)c(N2CCN(C(=O)c3csc4ccccc34)CC2)c1 | inconclusive [inhibitor, single point] |  |
| COC(=O)c1sccc1NC(=O)CN(C)NS(=O)(=O)c1ccc([N+](=O)[O-])cc1 | active: 1.58 µM |  |
| CCOC(=O)Cc1csc(NC(=O)/C=C\c2ccccc2Cl)n1 | inactive |  |
| COc1ccc(-c2cc(C(=O)N/N=C/c3ccc(O)cc3)[nH]n2)cc1 | active: 12.6 µM |  |
| COc1ccc(S(=O)(=O)N2CCCCCC2)cc1N(C)S(=O)(=O)c1ccccc1 | inconclusive [inhibitor, partial curve] |  |
| Cc1oc(-c2cccs2)nc1CS(=O)CC(=O)NCCc1ccccc1 (stereo not drawn) | inconclusive [inhibitor, single point] |  |
| CCC(=O)OCCNc1cc(Sc2nc3ccccc3[nH]2)c2nonc2c1[N+](=O)[O-] | inactive |  |
| O=C(CSc1nc2ccccc2c(=O)n1-c1ccccc1)N1CCC1 | inconclusive [inhibitor, single point] |  |
| CCCC1(C(=O)OCC)NC(c2ccc(N(C)C)cc2)C2C(=O)N(c3ccc(F)cc3)C(=O)C21 (stereo not drawn) | inconclusive [inhibitor, partial curve] |  |
| Cc1cc(N=Cc2c(O)n(-c3ccc4c(c3)OCO4)c(=O)c3ccccc23)ccn1 | inconclusive [inhibitor, partial curve] |  |
| COC(=O)c1cc2c(C)cc3ccc(C)cn3c-2c1C(=O)OC | active: 25.1 µM |  |
| Cc1cccn2c(=O)c3cc(C#N)c(=O)n(Cc4cccnc4)c3nc12 | inconclusive [inhibitor, partial curve] |  |
| Cc1cccc(CNc2ncnc3ccc(-c4ccoc4)cc23)c1 | inconclusive [inhibitor, partial curve] |  |
| O=C(c1cc(COc2ccc(F)cc2F)on1)N1CCCC(c2ccccc2)C1 (stereo not drawn) | inconclusive [inhibitor, single point] |  |
| COC(=O)c1sccc1N/N=C(\C)c1ccc(F)c(Cl)c1 | inconclusive [inhibitor, single point] |  |
| Cn1cccc1C(=O)N1CCC2(CCCN(c3ccccc3)C2)CC1 | inconclusive [inhibitor, single point] |  |
| CCN1CCN(C(c2cccnc2)c2cc(Cl)c3cccnc3c2O)CC1 (stereo not drawn) | active: 1.78 µM |  |

| Structure (SMILES) | Potency | activity, negative = inhibition |
| --- | --- | --- |
| CCOc1ccc(/C=C2\SC(=S)NC2=O)cc1OC | inconclusive [inhibitor, single point] |  |
| CCn1c(/C(C#N)=N/O)nc2ccccc21 | active: 20 µM |  |
| O=C(Nc1cccnc1)c1cccc(S(=O)(=O)N2CCc3ccccc32)c1 | inconclusive [inhibitor, partial curve] |  |
| Cc1onc(-c2c(Cl)cccc2Cl)c1C(=O)N1CCCc2ccccc21 | inactive |  |
| COc1ccc(/C=N/Nc2nc(N3CCCC3)nc(N3CCCC3)n2)c(OC)c1OC | inconclusive [inhibitor, partial curve] |  |
| CC(=O)c1sc2nc(CSc3nncn3C)[nH]c(=O)c2c1C | inconclusive [inhibitor, single point] |  |
| COC(=O)c1c(-c2ccc(F)cc2)noc1N | inactive |  |
| O=C(Nc1ccccc1)N1CC2(CCN(C(=O)c3cccc(F)c3)CC2)C1 | inactive |  |
| O=C(c1cccs1)N1CCN(Cc2ccccc2[N+](=O)[O-])CC1 | active: 25.1 µM |  |
| O=C(NCc1ccco1)c1cc([N+](=O)[O-])cc([N+](=O)[O-])c1 | inconclusive [inhibitor, single point] |  |
| Cc1c(-c2ccccc2)nc(N)c(C#N)c1-c1cccs1 | inconclusive [inhibitor, single point] |  |
| COc1ccc(C(=O)On2c(-c3ccc(Br)cc3)nc3ccccc3c2=O)cc1 | inconclusive [inhibitor, partial curve] |  |
| Cc1csc(NC(=O)CSc2nnc(-c3ccoc3C)n2CCc2ccccc2)n1 | inconclusive [inhibitor, single point] |  |
| N#Cc1c(NC(=O)CN2CCOCC2)oc(-c2ccccc2)c1-c1ccccc1 | inconclusive [inhibitor, single point] |  |
| CC(Cc1cccnc1)NC(=O)c1ccccc1OC1CCN(S(C)(=O)=O)CC1 (stereo not drawn) | inconclusive [inhibitor, single point] |  |
| O=C(Cc1ccc([N+](=O)[O-])cc1)Nc1ccc(Cl)cc1 | inconclusive [inhibitor, single point] |  |
| Cc1ccc(C)c(S(=O)(=O)N2CCCOC2CNC(=O)C(=O)NCc2ccco2)c1 (stereo not drawn) | inactive |  |
| Cc1cccc2cc(CN(Cc3cccs3)S(=O)(=O)c3ccc4c(c3)OCCO4)c(=O)[nH]c12 | inconclusive [inhibitor, partial curve] |  |
| CCCn1nnc(NC(=O)c2cc(Br)ccc2OC)n1 | inconclusive [inhibitor, partial curve] |  |
| COc1ccc(Cc2nnc(NC(=O)c3cc(OC)c(OC)c(OC)c3)s2)cc1OC | inactive |  |
| Cc1ccc(N2CCCCn3c2nc2c3c(=O)[nH]c(=O)n2C)cc1 | inconclusive [inhibitor, single point] |  |
| O=C(Nc1ccc(N2CCCCC2)c(Cl)c1)c1ccc(N2CCOCC2)c([N+](=O)[O-])c1 | active: 8.91 µM |  |
| Cc1ccc(SCC(=O)c2sc(-c3ccccc3)nc2C)cc1 | inactive |  |
